Among all 310,000 compounds or so, about 2,200 (0.71%) showed an effect of 50% or more. Effects have a minus sign here. This is one part of the list.
target: human ether-à-go-go-related gene (hERG) potassium channel (human, UniProt Q12809); assay: primary screen, population patch clamp on CHO cells stably expressing hERG
Sequence (Q12809 whole entry, looked up): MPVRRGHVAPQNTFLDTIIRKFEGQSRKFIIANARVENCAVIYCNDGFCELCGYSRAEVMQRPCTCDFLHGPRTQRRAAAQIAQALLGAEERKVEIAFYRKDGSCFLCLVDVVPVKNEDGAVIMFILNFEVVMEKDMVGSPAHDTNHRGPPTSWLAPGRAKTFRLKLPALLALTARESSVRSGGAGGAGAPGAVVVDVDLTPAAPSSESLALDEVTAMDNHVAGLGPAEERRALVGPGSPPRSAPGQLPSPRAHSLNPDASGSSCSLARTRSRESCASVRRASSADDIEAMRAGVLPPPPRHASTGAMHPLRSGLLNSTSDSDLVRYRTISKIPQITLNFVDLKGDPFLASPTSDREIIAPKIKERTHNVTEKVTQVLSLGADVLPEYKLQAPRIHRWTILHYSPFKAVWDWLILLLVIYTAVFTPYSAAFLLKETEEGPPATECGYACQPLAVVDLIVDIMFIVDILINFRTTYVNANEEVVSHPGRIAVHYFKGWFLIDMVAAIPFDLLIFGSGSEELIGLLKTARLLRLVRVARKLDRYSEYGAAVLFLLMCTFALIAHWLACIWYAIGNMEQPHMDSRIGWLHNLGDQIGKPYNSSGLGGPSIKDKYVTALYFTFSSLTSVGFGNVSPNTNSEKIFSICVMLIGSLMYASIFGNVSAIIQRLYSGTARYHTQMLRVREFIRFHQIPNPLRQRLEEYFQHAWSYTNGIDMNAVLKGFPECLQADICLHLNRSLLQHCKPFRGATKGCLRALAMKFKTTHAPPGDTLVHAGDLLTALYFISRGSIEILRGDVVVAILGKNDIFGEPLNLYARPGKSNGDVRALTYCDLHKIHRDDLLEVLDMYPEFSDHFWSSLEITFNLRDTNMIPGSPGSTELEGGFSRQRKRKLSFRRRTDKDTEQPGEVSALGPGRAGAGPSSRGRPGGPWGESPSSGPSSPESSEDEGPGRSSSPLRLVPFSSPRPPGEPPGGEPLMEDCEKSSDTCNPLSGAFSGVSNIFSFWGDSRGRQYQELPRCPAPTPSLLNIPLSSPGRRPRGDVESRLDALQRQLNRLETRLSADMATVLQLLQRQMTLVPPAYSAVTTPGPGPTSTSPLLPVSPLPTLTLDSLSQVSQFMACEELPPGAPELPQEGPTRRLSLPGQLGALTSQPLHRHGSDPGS

Compound | hERG current change (%, negative = inhibition) at 1uM [%]
N/C(Cc1ccc([N+](=O)[O-])cc1)=N\OC(=O)COc1cccc2ccccc12 | -1.19
Cc1ccc(S(=O)(=O)/N=C(/c2ccc(F)cc2)N(C)C)cc1 | 12.5
O=C(CN1C(=O)COc2ccc(S(=O)(=O)N3CCCC3)cc21)Nc1cccc(F)c1 | 12.5
O=C(Nc1ccc(Cl)cc1)c1ccc(-n2cccn2)c([N+](=O)[O-])c1 | 9.07
CC(C)(C)CC(=O)Nc1nnc(C(F)(F)F)s1 | 9.48
Cc1ccc2oc(C(=O)Nc3ccc(S(=O)(=O)Nc4ncccn4)cc3)c(C)c2c1 | 11.6
O=C(COC(=O)/C=C/c1ccco1)NCCc1ccccc1 | 6.5
COc1ccc(S(=O)(=O)N2CCCCCC2)cc1C(=O)NCc1cccs1 | -1.76
CCCCN1C(=O)NC(c2cccc([N+](=O)[O-])c2)C(C(=O)OCC)=C1C (stereo not drawn) | 8.07
CCOc1ccc2[nH]c3c(NCCCOC)ncnc3c2c1 | 8.18
CC(=O)c1cc(CN2CCC(N3CCC(C(=O)N4CCCC4)CC3)CC2)cs1 | 13.8
CCCn1cc(S(=O)(=O)c2ccc(Cl)cc2)c(=O)c2cc(OC)ccc21 | 3.39
O=C1c2ccccc2C(=O)C1c1ccc(O)cc1 | 7.6
CCN(CC1CCCN(CCc2cccc(OC)c2)C1)C(=O)c1ccoc1C (stereo not drawn) | -27.8
COc1ccc(NC(=O)C2CCCN(S(=O)(=O)c3ccc4c(c3)oc(=O)n4C)C2)c(OC)c1 (stereo not drawn) | -5.18
CCCN(C(=O)c1ccc2c(SCC(=O)O)c3c(nc2c1)CCC3)c1cccc(C)c1 | 13
NC(=O)CSc1ccc(S(=O)(=O)N2CCOCC2)cn1 | 8.71
CC(=O)NC(C)C(=O)OCC(=O)c1ccc(Cl)s1 (stereo not drawn) | 14.6
Nc1ccccc1C(=O)OCCc1ccccc1 | 9.92
CC1(C)Cc2cccc(OCC(=O)N3CCN(c4cccc(C(F)(F)F)c4)CC3)c2O1 | 8.43
Cc1cc(C)nc(NNS(=O)(=O)c2ccc(F)c(Cl)c2)n1 | 11.6
COc1ccc(NC(=O)c2cccnc2NCCc2ccccc2)cc1 | 9.86

Compound | hERG current change (%, negative = inhibition) at 1uM [%]
COc1ccccc1N1CCN(S(=O)(=O)c2ccc(Cl)cc2)CC1 | 12.8
O=C(O)CC(CN1C(=O)c2ccccc2C1=O)c1ccccc1 (stereo not drawn) | 12.7
COC(=O)c1c(NC(=O)CSc2ncnc3ccccc23)sc(C)c1C | 2.87
CC(=O)N(OCc1ccc(OC(C)C)c(Cl)c1)C(C)=O | 12.4
NC(=O)COc1ccc(NC(=O)c2ccccc2-c2ccccc2)cc1 | 4.66
Cc1ccc(Nc2nc3ccc(Cl)cc3n3cnnc23)cc1F | 13.8
CC(=O)c1sc(N2CCOCC2)nc1-c1ccccc1 | 8.54
O=C(c1ccccc1)N1CCN(C(=O)c2ccccc2)CC1 | 5.75
COc1ccc(C2CC(=O)Oc3c(C(CCN4CCCCC4)c4ccc(N(C)C)cc4)c(OC)cc(OC)c32)cc1 (stereo not drawn) | 16.6
COc1ccc(NC(c2ccccc2F)P(=O)(Oc2ccccc2)Oc2ccccc2)cc1 (stereo not drawn) | 7.1
COC(=O)Cc1c(C)nc2nc(-c3ccc(C)cc3)[nH]n2c1=O | 16.2
CCCc1nnc(SCC(=O)N2CCOCC2)n1CC1CCCO1 (stereo not drawn) | 17.5
CC(=O)Nc1cc(C(F)(F)F)ccc1Oc1cccc(Br)c1 | 1.1
Cc1ccc(-c2csc(NC(=O)COC(=O)c3cccc(S(=O)(=O)N4CCOCC4)c3)n2)cc1 | 10.1
Cc1cc(N2C(=O)C(O)=C(C(=O)c3cccs3)C2c2cccc(O)c2)no1 (stereo not drawn) | 12.5
COc1ccc(CNc2ccc3c(c2)CCC3)cc1Br | 18.1
COc1ccccc1C(=O)NNc1ncc(C)s1.Cl | 18.9
O=C(O)CSc1nnc(-c2ccc(Cl)cc2Cl)n1-c1ccccc1 | 12.7
CC(C)N1CC(C(=O)O)CC1=O (stereo not drawn) | 13.6
C=CCNC(=S)N1CCN(c2ccccc2Cl)CC1 | 7.12
CN(C(=O)c1ccc(NC(=O)Cc2cccc(NC(=O)C3CCCN(C(=O)C4CCC4)C3)c2)cc1)C1CCCC1 (stereo not drawn) | 0.975
Cc1c(NC(=S)NC(=O)c2sc3ccccc3c2Cl)cccc1C(=O)O | 8.19

Compound | hERG current change (%, negative = inhibition) at 1uM [%]
COc1cccc(CNC(=O)c2ccc(Cl)c(S(=O)(=O)N3CCOCC3)c2)c1 | -1.87
Clc1ccc2c(NNc3ccccc3Cl)ccnc2c1 | 11
CC(CCc1ccccc1)NC(=O)/C=C/c1ccc(Cl)cc1 (stereo not drawn) | 1.87
Cc1ccc(NS(=O)(=O)c2ccc(OCC(=O)N3CCN(C)CC3)cc2)cc1 | 8.15
Clc1ccc(-c2nnc(C34CC5CC(CC(C5)C3)C4)o2)cn1 | 1.2
CC1CCC(NC(=O)CCn2ccc3cc(S(=O)(=O)N4CCCC4)ccc32)CC1 (stereo not drawn) | 8.73
COC(=O)C(Cc1ccccc1)NC(=O)CC(C)CC(=O)Nc1ccc(OC)cc1OC (stereo not drawn) | 12.3
CCOC(=O)C1(CC2CC2)CCN(Cc2ccc(OC)cc2F)CC1 | -73.3
CC(C)(C)CN1CCC(n2nccc2NC(=O)c2ccccc2Cl)CC1 | 4.68
Cc1ccc(C(=O)Nc2nc3ccccc3[nH]2)cc1 | 4.96
COc1ccc(NC(C)=O)cc1S(=O)(=O)N(C)Cc1c(C)nn(-c2ccccc2)c1C | -0.103
CC(Sc1nc(NC(C)(C)C)nc(N(C)C)n1)C(=O)Nc1ccccc1 (stereo not drawn) | 3.82
CCC1=C(OC(=O)N(CC)CC)N2C(=O)OC(=NCC(=O)OC)[C@]2(C)[C@H]2C1=CC[C@H]1C(=O)N(C)C(=O)[C@H]12 | -6.57
CCN(CC)C(=O)n1cnc(-c2ccccc2)c1-c1ccccc1 | 13
O=C(NC1CCN(S(=O)(=O)c2ccc(F)cc2)CC1)c1cccc(F)c1 | 9.77
COc1ccc(NC(=S)NCC(c2cccnc2)N2CCOCC2)cc1 (stereo not drawn) | 9.85
CC(C)NC(=O)CN1CCN(C(=O)CCl)CC1.Cl | 16.2
Cc1ccc(C(O)Cn2cc([N+](=O)[O-])nc2C)cc1 (stereo not drawn) | 8.73
O=C(Nc1ccccc1C(=O)N1CCOCC1)c1ccc([N+](=O)[O-])cc1 | 16
NC(=O)CC(NC(=O)Cc1ccc(Cl)cc1)c1ccc(NCCOc2ccccc2)c([N+](=O)[O-])c1 (stereo not drawn) | 13.5
CCc1ccc(OCCOCC(O)CNC2CCCC2)cc1.Cl (stereo not drawn) | 7.22
CCn1c(=O)n(CC(=O)NCC2CCCO2)c(=O)c2c3c(sc21)COC(C)(C)C3 (stereo not drawn) | 15.2

Compound | hERG current change (%, negative = inhibition) at 1uM [%]
CN(C(=O)COC(=O)c1ccc(Cl)cc1N)C1CCS(=O)(=O)C1 (stereo not drawn) | -4.72
Cc1cccc(C)c1NC(=O)CN(C)C(=O)c1cc(S(=O)(=O)N2CCOCC2)ccc1N1CCCC1 | 0.446
O=C(N/C(=C/c1ccc(Cl)cc1)c1nc2ccccc2[nH]1)c1ccco1 | 14.2
COCCNC(=O)c1onc(CSc2ccc(F)cc2)c1C(=O)NCCOC | 11
CCOc1cc(C)ccc1OCc1nnc(SCC(=O)c2cccc([N+](=O)[O-])c2)n1C | 3.38
O=C(O)C(=O)O.O=S(=O)(c1ccc(F)cc1)N1CCC(N2CCCCCC2)CC1 | -14.5
CCOc1ccc(Br)cc1CSC(=N)N.Cl | 1.41
COc1cc2c(c(OC)c1OC)-c1ccc(O)c(=O)cc1[C@@H](N)CC2 | -4.4
CC(C)C(=O)N1CCN(c2ccccc2NC(=O)c2cc([N+](=O)[O-])ccc2N2CCOCC2)CC1 | -46.5
Cc1cc(NC(=O)CSc2nnc(-c3ccncc3)n2-c2ccc(F)cc2)no1 | 6.42
Cc1ccc(Cn2ncc3c(N4CCN(C)CC4)ncnc32)cc1 | -0.522
O=C(O)CCC(=O)NN1C(=O)c2ccccc2NC1c1ccc(F)cc1 (stereo not drawn) | 6.84
CC(=O)c1ccc(S(=O)(=O)N2CCCCC2C(=O)O)cc1 (stereo not drawn) | 17
CC(C)CC(=O)Nc1ccc2c(c1)nc(CCN1CCOCC1)n2C | 22.8
CC(C)C(=O)Nc1ccccc1C(=O)N/N=C/c1ccc([N+](=O)[O-])cc1 | 8.38
O=C1NC(=O)c2cc3ccccc3cc21 | -11.5
O=C(Nc1cccc2c1CCCC2)c1ccccc1Br | 13.6
COc1ccc(CCNC(=O)CSc2ncc(C(=O)Nc3ccccc3)c(=O)n2C)cc1 | 4.73
Cc1cc(NC(=O)CN2CCC(C)CC2)no1.O=C(O)C(=O)O | 14.4
O=C(Nc1ccccc1C(=O)N1CCOCC1)c1ccc(Cl)cc1 | 11.1
Cc1cc(-c2ccc(C(C)C)c(S(=O)(=O)N3CCN(c4ccccn4)CC3)c2)on1 | 13.9
